According to PubChem BioAssay AID1671188 (National Center for Advancing Translational Sciences (NCATS), 2021):
In all, about 100,000 compounds went through this assay and about 250 (0.25%) were called active. The inconclusive results got no clear call from the source; some entries with a clear call stand among them for comparison. Calls come from the whole dose curve; as a rule, active = well fitted inhibition curve with a large enough effect; inconclusive = small, poorly fitted or top-dose-only effect; inactive = flat fitted curve, though single readings scatter. No potency is given beside an inconclusive call; the fits are too rough.

Target: Alanine aminotransferase 2 (Homo sapiens) (UniProt Q8TD30)
UniProt Q8TD30, sequence (Q8TD30 whole entry, looked up): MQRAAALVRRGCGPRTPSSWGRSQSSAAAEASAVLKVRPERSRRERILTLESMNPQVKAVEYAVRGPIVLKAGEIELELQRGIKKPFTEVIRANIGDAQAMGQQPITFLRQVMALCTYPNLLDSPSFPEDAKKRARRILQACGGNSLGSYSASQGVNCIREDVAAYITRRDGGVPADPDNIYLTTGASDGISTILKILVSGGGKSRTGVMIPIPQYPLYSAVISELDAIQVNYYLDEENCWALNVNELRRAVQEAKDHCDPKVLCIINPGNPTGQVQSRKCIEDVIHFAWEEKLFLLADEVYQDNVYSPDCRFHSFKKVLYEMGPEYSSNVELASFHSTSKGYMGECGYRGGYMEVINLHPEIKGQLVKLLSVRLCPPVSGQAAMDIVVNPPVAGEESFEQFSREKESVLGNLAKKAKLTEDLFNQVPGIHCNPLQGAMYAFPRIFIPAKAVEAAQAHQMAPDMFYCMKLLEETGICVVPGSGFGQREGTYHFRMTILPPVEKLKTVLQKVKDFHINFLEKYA
Assay: Primary qHTS assay for inhibitors of Glutamate pyruvate transaminase 2 (GPT2); note: nearly all actives have a fitted effect of over 60% in size
Conditions: Recombinant GPT2, coupled pyruvate oxidase/HRP Amplex Red fluorescence; activity change, negative = inhibition: at 57.7 µM (top of the series) unless noted; series mostly up to 57.7 µM
In short: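 Fluorescence of coupled pyruvate oxidase/HRP/Amplex Red system (50uM Amplex, 30 min, dark) reports pyruvate formed by GPT2. Enzyme reaction: 10ng/uL GPT2, 2mM L-alanine, 250uM a-KG, 30 min room temperature, pH 7.5; 50uM AOA control.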
% is set by controls: 0 for no effect and ±100 for the full control effect; potency is the fitted concentration of half-maximal effect; tags give direction and shape of the fitted curve.

Structure (SMILES) | Potency | activity change, negative = inhibition
CC(C)c1noc(-c2cn(C3CCN(C(=O)c4cccs4)CC3)nn2)n1 | inconclusive [inhibitor, single point] | –
Cc1cc(CNC(=O)[C@@H]2CCC[C@@H](NCc3nccs3)CN(C)C(=O)C2)no1 | inconclusive [inhibitor, single point] | –
O=C(NCCC1CCN(C(=O)Nc2cc(F)ccc2F)CC1)c1cccc(F)c1 | inactive | –
O=C(Cn1nc2c(cc1=O)CCCCC2)NCCc1nc2ccccc2[nH]1 | inconclusive [inhibitor, partial curve, poor fit] | –
CCOCCCNc1ncnc2c1CN(C1CCCCC1)C(=O)CN2C | inconclusive [inhibitor, single point] | –
CN(Cc1ccccc1)Cc1cn([C@H]2CO[C@H]3[C@@H]2OC[C@@H]3NS(=O)(=O)c2cccc3cccnc23)nn1 | active: 4.47 µM | –
COC(=O)C1=C(C)N=C2SC=C(CC(=O)N3CCCCC3)N2C1c1ccc(Cl)cc1 (stereo unspecified) | inconclusive [inhibitor, single point] | –
Cc1noc(C)c1-c1cc2cc(C(C)C)oc2c(N2CCS(=O)(=O)CC2)n1 | inconclusive [inhibitor, single point] | –
CN1CCN(Cc2nc(C3(O)CCN(CC4CCCCC4)CC3)cs2)CC1 | inconclusive [inhibitor, partial curve, poor fit] | –
COc1ccccc1-n1c(=O)c(C(=O)N2CCN(C(=O)NC3CCCC3)CC2)nc2cccnc21 | inactive | –
COC(=O)[C@@H]1C[C@H](NC(=O)CSC23CC4CC(CC(C4)C2)C3)CN1C | inconclusive [inhibitor, single point] | –
CCc1cccc(NC(=O)Cn2c(COc3ccc(OC)cc3)nc(C)c(CCO)c2=O)c1 | inconclusive [inhibitor, single point] | –
Cc1cnc(CC2CCCN(Cc3ccc(C#N)cc3)C2)n1C(C)C (stereo unspecified) | inactive | –
Cc1nn(-c2ccc(C(F)(F)F)cc2)c(C)c1[C@@H]1C=C[C@@H](NC(=O)CSCC(=O)O)C1 | inactive | –
COC(=O)CNC(=O)C1CN(c2ccccc2)C(=O)N1 (stereo unspecified) | inactive | –
COc1ccccc1CNC(=O)[C@@H]1Cc2cn(C)c3cccc(c23)[C@H](CC(C)C)N1 | inconclusive [inhibitor, single point] | –
CCOc1ccc(NC(=O)Cn2c(N3CCc4ccccc4C3)nc(C)cc2=O)cc1 | inactive | –
O=C(NOCC(O)CO)c1cc(Br)c(F)c(F)c1Nc1ccc(I)cc1F (stereo unspecified) | inconclusive [inhibitor, full curve, poor fit] | –
COCc1noc([C@@H]2CN(Cc3ccncc3F)C[C@H]2COC)n1 | inconclusive [inhibitor, full curve, poor fit] | –
COc1ncccc1-c1cc2[nH]ccc2c(C(=O)NCc2c(C)cc(C)[nH]c2=O)n1 | inconclusive [inhibitor, full curve, poor fit] | –
CN(C)C(C(=O)NCc1nnc2n1CCCC2)c1cccc(F)c1 (stereo unspecified) | inactive | –
COc1ccccc1-c1ccc2ncc(Nc3ccc(CCO)cc3)n2n1 | inconclusive [inhibitor, single point] | –

Structure (SMILES) | Potency | activity change, negative = inhibition
N#Cc1cccc(S(=O)(=O)N[C@@H]2CCOC[C@H]2OCc2cscn2)c1 | inconclusive [inhibitor, full curve, poor fit] | –
COc1cccc(-c2ccc(CN)cc2)c1 | inactive | –
CN1CC(=O)N(C2CCCCC2)Cc2c(NCCc3ccccc3)ncnc21 | inactive | –
C[C@@H]1CN(Cc2ccc(F)cc2)[C@@H](C)CN1C(=O)c1cc2c(C(=O)C(=O)N(C)C)cn(C)c2cc1Cl | – | inconclusive: -30.1% [inhibitor]
COCCN[C@@H]1C[C@@H]2c3[nH]c4ccccc4c3C[C@@H](C(=O)OC)N2[C@H](c2ccc(Cl)c(F)c2)C1 | inactive | –
CC(C)C(=O)N1CCC(Oc2cnc3c(ccn3-c3cncnc3)c2)CC1 | inactive | –
O=C(NC1CC1)c1ccc2oc(-c3ccncc3)nc2c1 | inactive | –
O=C(Cc1cccc(Cl)c1)NC1CCN(Cc2cccc(-c3ccc(F)c(F)c3)c2)CC1 | inactive | –
COc1ccc2[nH]c(C(=O)N(CC3CC3)CC3CCCO3)c(C)c2c1 (stereo unspecified) | inconclusive [inhibitor, single point] | –
CC(C)(C(=O)NCC(F)(F)C(F)(F)F)C(=O)NC1C(=O)Nc2ccccc2-c2ccccc21 (stereo unspecified) | inconclusive [inhibitor, single point] | –
CN(CC(O)COc1ccccc1CN1CCCOCC1)C1CCCCC1 (stereo unspecified) | inactive | –
COCCOC1CCN(C(=O)c2ccc3oc(-c4cccc(F)c4)nc3c2)CC1 | inconclusive [inhibitor, single point] | –
C[C@@H]1CN(C(=O)c2nc3sccn3c2CNC2(c3ccccc3)CC2)C[C@H](C)O1 | inconclusive [inhibitor, single point] | –
COCCNC(=O)c1nc(-c2ccc(Cl)cc2)c2ccccn12 | inactive | –
CN(Cc1ccc(F)cc1)Cc1cccnc1 | inactive | –
CC(C)Cn1c(=O)c(C(=O)N2CCN(C(=O)c3ccc(F)cc3)CC2)nc2cccnc21 | inactive | –
C[C@]1(O)CCN(C(=O)CCS(=O)(=O)c2ccccc2)C[C@@H]1O | inconclusive [inhibitor, single point] | –
COc1ccc2nc3n(c2c1)[C@@H](CNCc1ccc2c(c1)OCO2)COC3 | inconclusive [inhibitor, single point] | –
CCn1nc(-c2ccc3c(c2)OCCO3)nc1N(C)C | inconclusive [inhibitor, partial curve, poor fit] | –
COc1ccc(-c2cn(C)c(=O)n3cc(CN(C)C)nc23)c(C(F)(F)F)c1 | inactive | –
COc1ccccc1-c1cc(C(=O)NCc2ccc(F)cc2)c2cnn(C)c2n1 | inconclusive [inhibitor, single point] | –
O=C(NCc1ccncc1)C1CN(S(=O)(=O)c2ccc(F)cc2)CC12CCOCC2 (stereo unspecified) | inactive | –

Structure (SMILES) | Potency | activity change, negative = inhibition
O=C(NCc1cccnc1)c1nc(-c2ccccc2)cc2[nH]ccc12 | inactive | –
CN1CCN(C(=O)c2ccc3oc(-c4cccnc4)nc3c2)CC1 | inactive | –
CC1(C)[C@H](Cc2cc(COc3ccccc3)on2)C[C@@H]1NC(=O)C1CCC1 | inactive | –
Cc1noc([C@@H](C)NS(=O)(=O)c2ccc(Cl)cc2)c1C(=O)O | inconclusive [inhibitor, partial curve, poor fit] | –
O=C(C[C@@H]1CCNC[C@@H]1Cc1cc(COc2ccccc2)on1)NCc1cccs1 | inactive | –
O=C(O[C@H]1[C@@H]2C[C@@H]3OC[C@](O)([C@@H]1Cl)[C@H]2C(O[C@@H]1O[C@H](CO)[C@@H](O)[C@H](O)[C@H]1O)O3)c1ccc(O)c(O)c1 (stereo partly specified) | inconclusive [inhibitor, single point] | –
O=C(O)c1ccc(CN2C[C@@H]3OCC(=O)N(Cc4cccnc4)[C@@H]3C2)cc1 | inconclusive [inhibitor, single point] | –
Cc1ccc(NC(=O)C2CCCN(c3cn[nH]c(=O)c3)C2)cc1C (stereo unspecified) | inactive | –
O=C1CC(C(=O)N2CCc3nc(-c4ccccc4)[nH]c3C2)C2(CCCCC2)O1 (stereo unspecified) | inconclusive [inhibitor, single point] | –
CN1CCN(c2ccc(-c3noc([C@@H]4CCCN4C4CCCCC4)n3)cn2)CC1 | inactive | –
CN(C)C[C@@H]1CN(c2ccncn2)C[C@H]1NC(=O)NC1CCCCC1 | inconclusive [inhibitor, single point] | –
Cc1noc(C)c1S(=O)(=O)N1CC(c2nc(Cc3cccnc3)no2)C1 | inconclusive [inhibitor, full curve, poor fit] | –
COC1=C2C[C@@H](C)C[C@H](OC)[C@@H](O)[C@@H](C)C=C(C)[C@H](OC(N)=O)[C@@H](OC)C=CC=C(C)C(=O)NC(=CC1=O)C2=O | inconclusive [inhibitor, partial curve] | –
COc1cccc(CN2CCCC3(CCN(C(=O)c4cccnc4)C3)C2=O)c1OC (stereo unspecified) | inconclusive [inhibitor, single point] | –
Cc1ccccc1[S+](=O)([O-])N1CC2(CN(CCOc3ccccc3)C(=O)O2)C1 | inconclusive [inhibitor, full curve, poor fit] | –
O=C(NCc1ccc2c(c1)OCO2)c1cnc2c(c1)N([S+](=O)([O-])c1cccnc1)CCC2 | inconclusive [inhibitor, single point] | –
O=C(C[C@@H]1C[C@@H]2C=C[C@H]1C2)NCc1cccnc1-n1cnc2ccccc21 | inconclusive [inhibitor, partial curve, poor fit] | –
CN(Cc1ccc(N2CCOCC2)cc1)C(=O)CCC[C@H]1NC[C@@H]2C[C@H]1CN(Cc1ccccc1)C2 | inconclusive [inhibitor, single point] | –
CCc1cccc(C)c1NC(=O)CN1C=C(C(=O)OC)C(C)=NS1(=O)=O | inconclusive [inhibitor, single point] | –
CN(C)CCCC(=O)N1CCC(n2c(=O)[nH]c3ccccc32)CC1 | inactive | –
COc1cccc([S+](=O)([O-])N2CCC(C(=O)N3CCC(N4CCOCC4=O)CC3)CC2)c1 | inconclusive [inhibitor, single point] | –
CN(Cc1ccc2nsnc2c1)Cc1nc(Cc2cccc(C(F)(F)F)c2)no1 | inactive | –
